Experimental data published in the antibiotic and cytotoxicity screens of Wong et al. (2023).
Some of the results follow.

system: S. aureus RN4220; experiment: growth inhibition call (relative growth <= 0.2); details: 50 µM

Growth inhibition call, inactive:
C[C@@H]1CCCCO[C@@H](CN(C)Cc2ccccc2)[C@H](C)CN([C@@H](C)CO)C(=O)c2cc(NC(=O)Cc3ccccc3)ccc2O1
COC[C@@H]1CNN1C(=O)OC(C)(C)C
O=C(CCCCCNC(=O)OCc1ccc(CO[C@H]2C[C@@H](c3ccc(C(F)(F)F)cc3)C=C(C(=O)N3CCN(Cc4ccc5c(c4)OCO5)CC3)O2)cc1)NO
C[C@H]1CN([C@@H](C)CO)C(=O)Cc2cc(NC(=O)Cn3cnnn3)ccc2O[C@H]1CN(C)C(=O)Nc1cccc2ccccc12
COC(=O)[C@@H](NC(=O)Cn1cc(CCC(=O)NO)nn1)c1ccccc1
COc1ccc(C#Cc2ccc3c(c2)O[C@@H](CN(C)S(=O)(=O)c2ccccc2F)[C@@H](C)CN([C@@H](C)CO)S3(=O)=O)cc1
CCNC(=O)C[C@@H]1C=C[C@H](NC(=O)C2CCOCC2)[C@H](CO)O1
COc1ccccc1NC(=O)N(C)C[C@H]1Oc2ncc(Br)cc2C(=O)N([C@H](C)CO)C[C@@H]1C
C[C@@H]1CN([C@@H](C)CO)C(=O)c2cc(NS(=O)(=O)c3cn(C)cn3)ccc2O[C@@H]1CN(C)Cc1ccncc1
CC(C)Oc1ccc2c(=O)c(-c3ccccc3)coc2c1
NC(=O)N1CCC(CC(=O)N2CCC([C@H]3c4ncc(Br)cc4CCc4cc(Cl)cc(Br)c43)CC2)CC1
CCNc1nc(SCC(N)=O)nc(N2CCOCC2)n1
CN1CCN(C(=O)C[C@H]2CC[C@@H]3[C@H](COc4ccc(NC(=O)C5CCCCC5)cc4C(=O)N3C)O2)CC1
O=C(C[C@H]1CC[C@@H]2[C@H](COC[C@H](O)CN2S(=O)(=O)c2cccc(Cl)c2)O1)N1CCOCC1
C[C@@H]1CN([C@H](C)CO)C(=O)c2cc(NC(=O)Cn3cnnn3)ccc2O[C@@H]1CN(C)Cc1ccc(C(F)(F)F)cc1
C[C@@H]1CN([C@@H](C)CO)C(=O)c2ccccc2-c2ccccc2CO[C@H]1CN(C)C(=O)N[C@H](C)c1ccccc1
COc1ccc(F)c(C(=O)N2CCN(CCO)[C@@H]3CS(=O)(=O)C[C@@H]32)c1F
C[C@@H]1CN([C@H](C)CO)C(=O)c2cc(NC(=O)Cc3cn(C)c4ccccc34)ccc2O[C@@H]1CN(C)Cc1ccc(Oc2ccccc2)cc1
C[C@H]1CN([C@@H](C)CO)C(=O)Cc2cc(NC(=O)Cn3cnnn3)ccc2O[C@@H]1CN(C)S(=O)(=O)c1ccc(Cl)cc1
Cc1ccc(S(=O)(=O)N(C)C[C@H]2Oc3ncc(C#CCC(C)C)cc3C(=O)N([C@@H](C)CO)C[C@H]2C)cc1
C[C@@H]1CN([C@H](C)CO)C(=O)CCCn2cc(nn2)CO[C@H]1CN(C)S(=O)(=O)c1cccc(C#N)c1
COc1ccc(NC(=O)N(C)C[C@H]2Oc3ccc(NS(C)(=O)=O)cc3CC(=O)N([C@H](C)CO)C[C@@H]2C)cc1
C[C@@H]1CN([C@@H](C)CO)C(=O)c2cc(NC(=O)CCCN(C)C)ccc2O[C@@H](C)CCCCO[C@@H]1CN(C)Cc1ccc(C(F)(F)F)cc1
C[C@@H]1CN([C@@H](C)CO)C(=O)Cc2cc(NC(=O)Cn3cnnn3)ccc2O[C@@H]1CN(C)C(=O)Nc1ccc(C(F)(F)F)cc1
C[C@@H]1CN([C@@H](C)CO)C(=O)Cc2cc(N(C)C)ccc2O[C@H]1CN(C)S(=O)(=O)c1cn(C)cn1
CCCCC/C=C\C/C=C\C/C=C\C/C=C\CCCC(=O)O
Cc1ccc(S(=O)(=O)Nc2ccc3c(c2)C(=O)N([C@H](C)CO)C[C@@H](C)[C@@H](CN(C)C(=O)Nc2ccccc2)OCCCC[C@@H](C)O3)cc1
Cc1ccc(S(=O)(=O)Nc2ccc3c(c2)CC(=O)N([C@@H](C)CO)C[C@@H](C)[C@@H](CN(C)S(=O)(=O)c2ccccc2)O3)cc1
Cc1cc(C(=O)O)nn1C
C[C@H]1CN([C@@H](C)CO)C(=O)c2cc(NC(=O)Cn3cnnn3)ccc2O[C@@H]1CN(C)S(=O)(=O)c1cccs1
C[C@@H]1CCCCO[C@H](CN(C)Cc2ccc(C(=O)O)cc2)[C@H](C)CN([C@H](C)CO)C(=O)c2cc(NC(=O)NC3CCCCC3)ccc2O1
CCN1CCCC1CNC(=O)c1cc(S(N)(=O)=O)ccc1OC (stereo not given)
C[C@@H]1CCCCO[C@H](CN(C)CC2CC2)[C@H](C)CN([C@@H](C)CO)C(=O)c2cc(NC(=O)Nc3cccc4ccccc34)ccc2O1
C[C@H](CO)N1C[C@H](C)[C@@H](CN(C)Cc2ccncc2)Oc2ccc(NC(=O)Nc3cccc4ccccc34)cc2C1=O
C[C@H](CO)N1C[C@H](C)[C@H](CN(C)C(=O)Nc2ccccc2)OCCCC[C@H](C)Oc2ccc(NC(=O)c3ccccc3)cc2C1=O
